# This is one part of the list.
# B1: MpL2 (Macrolepiota procera) (protein)
# chain: MSTQVSSGQTYKITNVKAGTVIRLSGEDNKSIIGYPYHSGKNQQWTFNWTGKAWTLRSASSGSYLGIEGTPADGTRLVAVNDPFEWHIWRDEANENAFRIFVPFTNYNLDLSGYGDTTPGTPVQLWWTWEGLHQTWTIDRP
# Experiments:
# Test in all cases: glycan array binding signal (z-score within array); higher = stronger binding
# Settings in all cases: glycan notation: IUPAC condensed, linker removed; mutation: D22R
# [1] = target: Gal(b1-4)GlcNAc(b1-2)[Gal(b1-4)GlcNAc(b1-6)]Man(a1-6)[Gal(b1-4)GlcNAc(b1-2)Man(a1-3)]Man(b1-4)GlcNAc(b1-4)[Fuc(a1-6)]GlcNAc
# In short: (§1)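 From the Consortium for Functional Glycomics database, 3228 arrays were curated, keeping only those whose protein sequence was available. Binding is given as a within-array Z-score averaged across arrays sharing a protein sequence and across linkers. Negative Z-scores can be read as non-binding.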
# [2] = target: Gal(b1-4)GlcNAc(b1-2)[Gal(b1-4)GlcNAc(b1-6)]Man(a1-6)[GlcNAc(b1-4)][Gal(b1-4)GlcNAc(b1-2)Man(a1-3)]Man(b1-4)GlcNAc(b1-4)GlcNAc
# In short: as §1
# [3] = target: Gal(b1-4)GlcNAc(b1-2)[Gal(b1-4)GlcNAc(b1-6)]Man(a1-6)[GlcNAc(b1-4)][Gal(b1-4)GlcNAc(b1-2)[Gal(b1-4)GlcNAc(b1-4)]Man(a1-3)]Man(b1-4)GlcNAc(b1-4)[Fuc(a1-6)]GlcNAc
# In short: as §1
# [4] = target: Gal(b1-4)GlcNAc(b1-3)Gal(b1-3)GalNAc
# In short: as §1
# [5] = target: Gal(b1-4)GlcNAc(b1-3)Gal(b1-3)GlcNAc
# In short: as §1
# [6] = target: Gal(b1-4)GlcNAc(b1-3)Gal(b1-4)Glc
# In short: as §1
# [7] = target: Gal(b1-4)GlcNAc(b1-3)Gal(b1-4)GlcNAc
# In short: as §1
# [8] = target: Gal(b1-4)GlcNAc(b1-3)Gal(b1-4)GlcNAc(b1-2)Man(a1-3)[Gal(b1-4)GlcNAc(b1-3)Gal(b1-4)GlcNAc(b1-2)Man(a1-6)]Man(b1-4)GlcNAc(b1-4)GlcNAc
# In short: as §1
# [9] = target: Gal(b1-4)GlcNAc(b1-3)Gal(b1-4)GlcNAc(b1-2)Man(a1-3)[Gal(b1-4)GlcNAc(b1-3)Gal(b1-4)GlcNAc(b1-2)Man(a1-6)]Man(b1-4)GlcNAc(b1-4)[Fuc(a1-6)]GlcNAc
# In short: as §1
# [10] = target: Gal(b1-4)GlcNAc(b1-3)Gal(b1-4)GlcNAc(b1-2)[Gal(b1-4)GlcNAc(b1-3)Gal(b1-4)GlcNAc(b1-6)]Man(a1-6)[Gal(b1-4)GlcNAc(b1-3)Gal(b1-4)GlcNAc(b1-2)Man(a1-3)]Man(b1-4)GlcNAc(b1-4)GlcNAc
# In short: as §1
# [11] = target: Gal(b1-4)GlcNAc(b1-3)Gal(b1-4)GlcNAc(b1-2)[Gal(b1-4)GlcNAc(b1-3)Gal(b1-4)GlcNAc(b1-6)]Man(a1-6)[Gal(b1-4)GlcNAc(b1-3)Gal(b1-4)GlcNAc(b1-2)Man(a1-3)]Man(b1-4)GlcNAc(b1-4)[Fuc(a1-6)]GlcNAc
# In short: as §1
# [12] = target: Gal(b1-4)GlcNAc(b1-3)Gal(b1-4)GlcNAc(b1-3)Gal(b1-4)GlcNAc
# In short: as §1
# [13] = target: Gal(b1-4)GlcNAc(b1-3)Gal(b1-4)GlcNAc(b1-3)Gal(b1-4)GlcNAc(b1-2)Man(a1-3)[Gal(b1-4)GlcNAc(b1-3)Gal(b1-4)GlcNAc(b1-3)Gal(b1-4)GlcNAc(b1-2)Man(a1-6)]Man(b1-4)GlcNAc(b1-4)GlcNAc
# In short: as §1
# [14] = target: Gal(b1-4)GlcNAc(b1-3)Gal(b1-4)GlcNAc(b1-3)Gal(b1-4)GlcNAc(b1-2)Man(a1-3)[Gal(b1-4)GlcNAc(b1-3)Gal(b1-4)GlcNAc(b1-3)Gal(b1-4)GlcNAc(b1-2)Man(a1-6)]Man(b1-4)GlcNAc(b1-4)[Fuc(a1-6)]GlcNAc
# In short: as §1
# [15] = target: Gal(b1-4)GlcNAc(b1-3)Gal(b1-4)GlcNAc(b1-3)Gal(b1-4)GlcNAc(b1-2)[Gal(b1-4)GlcNAc(b1-3)Gal(b1-4)GlcNAc(b1-3)Gal(b1-4)GlcNAc(b1-6)]Man(a1-6)[Gal(b1-4)GlcNAc(b1-3)Gal(b1-4)GlcNAc(b1-3)Gal(b1-4)GlcNAc(b1-2)Man(a1-3)]Man(b1-4)GlcNAc(b1-4)[Fuc(a1-6)]GlcNAc
# In short: as §1
# [16] = target: Gal(b1-4)GlcNAc(b1-3)Gal(b1-4)GlcNAc(b1-3)Gal(b1-4)GlcNAc(b1-3)Gal(b1-4)GlcNAc(b1-2)Man(a1-3)[Gal(b1-4)GlcNAc(b1-3)Gal(b1-4)GlcNAc(b1-3)Gal(b1-4)GlcNAc(b1-3)Gal(b1-4)GlcNAc(b1-2)Man(a1-6)]Man(b1-4)GlcNAc(b1-4)GlcNAc
# In short: as §1
# [17] = target: Gal(b1-4)GlcNAc(b1-3)Gal(b1-4)GlcNAc(b1-3)Gal(b1-4)GlcNAc(b1-3)Gal(b1-4)GlcNAc(b1-2)Man(a1-3)[Gal(b1-4)GlcNAc(b1-3)Gal(b1-4)GlcNAc(b1-3)Gal(b1-4)GlcNAc(b1-3)Gal(b1-4)GlcNAc(b1-2)Man(a1-6)]Man(b1-4)GlcNAc(b1-4)[Fuc(a1-6)]GlcNAc
# In short: as §1
# [18] = target: Gal(b1-4)GlcNAc(b1-3)Gal(b1-4)GlcNAc(b1-3)Gal(b1-4)GlcNAc(b1-3)Gal(b1-4)GlcNAc(b1-2)[Gal(b1-4)GlcNAc(b1-3)Gal(b1-4)GlcNAc(b1-3)Gal(b1-4)GlcNAc(b1-3)Gal(b1-4)GlcNAc(b1-6)]Man(a1-6)[Gal(b1-4)GlcNAc(b1-3)Gal(b1-4)GlcNAc(b1-3)Gal(b1-4)GlcNAc(b1-3)Gal(b1-4)GlcNAc(b1-2)Man(a1-3)]Man(b1-4)GlcNAc(b1-4)[Fuc(a1-6)]GlcNAc
# In short: as §1
# [19] = target: Gal(b1-4)GlcNAc(b1-3)Gal(b1-4)GlcNAc(b1-3)Gal(b1-4)GlcNAc(b1-3)Gal(b1-4)GlcNAc(b1-3)Gal(b1-4)GlcNAc(b1-2)Man(a1-3)[Gal(b1-4)GlcNAc(b1-3)Gal(b1-4)GlcNAc(b1-3)Gal(b1-4)GlcNAc(b1-3)Gal(b1-4)GlcNAc(b1-3)Gal(b1-4)GlcNAc(b1-2)Man(a1-6)]Man(b1-4)GlcNAc(b1-4)GlcNAc
# In short: as §1
# [20] = target: Gal(b1-4)GlcNAc(b1-3)Gal(b1-4)GlcNAc(b1-3)Gal(b1-4)GlcNAc(b1-3)Gal(b1-4)GlcNAc(b1-3)Gal(b1-4)GlcNAc(b1-2)Man(a1-3)[Gal(b1-4)GlcNAc(b1-3)Gal(b1-4)GlcNAc(b1-3)Gal(b1-4)GlcNAc(b1-3)Gal(b1-4)GlcNAc(b1-3)Gal(b1-4)GlcNAc(b1-2)Man(a1-6)]Man(b1-4)GlcNAc(b1-4)[Fuc(a1-6)]GlcNAc
# In short: as §1
# [21] = target: Gal(b1-4)GlcNAc(b1-3)Gal(b1-4)GlcNAc(b1-3)Gal(b1-4)GlcNAc(b1-3)Gal(b1-4)GlcNAc(b1-3)Gal(b1-4)GlcNAc(b1-2)[Gal(b1-4)GlcNAc(b1-3)Gal(b1-4)GlcNAc(b1-3)Gal(b1-4)GlcNAc(b1-3)Gal(b1-4)GlcNAc(b1-3)Gal(b1-4)GlcNAc(b1-6)]Man(a1-6)[Gal(b1-4)GlcNAc(b1-3)Gal(b1-4)GlcNAc(b1-3)Gal(b1-4)GlcNAc(b1-3)Gal(b1-4)GlcNAc(b1-3)Gal(b1-4)GlcNAc(b1-2)Man(a1-3)]Man(b1-4)GlcNAc(b1-4)[Fuc(a1-6)]GlcNAc
# In short: as §1
# [22] = target: Gal(b1-4)GlcNAc(b1-3)Gal(b1-4)GlcNAc(b1-3)Gal(b1-4)GlcNAc(b1-3)Gal(b1-4)GlcNAc(b1-3)Gal(b1-4)GlcNAc(b1-3)Gal(b1-4)GlcNAc(b1-2)Man(a1-3)[Gal(b1-4)GlcNAc(b1-3)Gal(b1-4)GlcNAc(b1-3)Gal(b1-4)GlcNAc(b1-3)Gal(b1-4)GlcNAc(b1-3)Gal(b1-4)GlcNAc(b1-3)Gal(b1-4)GlcNAc(b1-2)Man(a1-6)]Man(b1-4)GlcNAc(b1-4)GlcNAc
# In short: as §1
# [23] = target: Gal(b1-4)GlcNAc(b1-3)Gal(b1-4)GlcNAc(b1-3)GalNAc
# In short: as §1
binder,measurement,setting,value
B1,glycan array binding signal (z-score),[1],0.89
same,glycan array binding signal (z-score),[2],-0.082
same,glycan array binding signal (z-score),[3],0.014
same,glycan array binding signal (z-score),[4],-0.633
same,glycan array binding signal (z-score),[5],-0.285
same,glycan array binding signal (z-score),[6],-0.12
same,glycan array binding signal (z-score),[7],-0.231
same,glycan array binding signal (z-score),[8],2.6
same,glycan array binding signal (z-score),[9],0.975
same,glycan array binding signal (z-score),[10],1.39
same,glycan array binding signal (z-score),[11],2.5
same,glycan array binding signal (z-score),[12],-0.248
same,glycan array binding signal (z-score),[13],2.57
same,glycan array binding signal (z-score),[14],1.14
same,glycan array binding signal (z-score),[15],2.85
same,glycan array binding signal (z-score),[16],0.327
same,glycan array binding signal (z-score),[17],1.18
same,glycan array binding signal (z-score),[18],1.89
same,glycan array binding signal (z-score),[19],-0.059
same,glycan array binding signal (z-score),[20],-0.032
same,glycan array binding signal (z-score),[21],0.704
same,glycan array binding signal (z-score),[22],0.99
same,glycan array binding signal (z-score),[23],2.32

# From the supplement of paper PMC8728848
